The whole screen tested about 39,000 compounds, of which about 220 (0.56%) showed activity. The list shows a part of the results.
Tested on: Escherichia coli K-12 BW25113
Experiment: relative growth (OD600 normalised to plate interquartile mean) (fraction); higher = less growth inhibition, active = 0.2 or less
Conditions: 50 µM; LB; incubation time: overnight (16-24 h)
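Note: static incubation at 37 °C against the wild-type strain, values averaged over two biological replicates.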

SMILES | relative growth
C[C@@H]1CN([C@@H](C)CO)C(=O)c2c(c3ccccc3n2C)-c2ccccc2CO[C@H]1CN(C)C(=O)N[C@H](C)c1ccccc1 | inactive: 1.01
C[C@H]1CN([C@@H](C)CO)C(=O)c2cc(NS(=O)(=O)c3cn(C)cn3)ccc2O[C@H]1CN(C)Cc1ccc(C(=O)O)cc1 | inactive: 0.99
C[C@@H]1CN([C@H](C)CO)S(=O)(=O)c2ccc(-c3cncnc3)cc2O[C@@H]1CN(C)C(=O)NC1CCCC1 | inactive: 0.999
COc1ccc(CN(C)C[C@@H]2Oc3c(NS(=O)(=O)c4cn(C)cn4)cccc3C(=O)N([C@@H](C)CO)C[C@H]2C)cc1 | inactive: 0.973
C[C@@H]1CCCCO[C@@H](CN(C)CC2CCCCC2)[C@H](C)CN([C@H](C)CO)C(=O)c2cc(NC(=O)Nc3ccc(F)cc3)ccc2O1 | inactive: 0.967
Cc1noc(C)c1S(=O)(=O)N(C)C[C@@H]1Oc2ccc(NC(=O)Nc3ccc4c(c3)OCO4)cc2CC(=O)N([C@@H](C)CO)C[C@H]1C | inactive: 1.01
O=C(N/N=C/[C@@H](O)[C@H](O)[C@H](O)CO)c1ccccc1O | inactive: 0.979
Cc1noc(C)c1NC(=O)N(C)C[C@@H]1Oc2c(NC(=O)C3CC3)cccc2C(=O)N([C@@H](C)CO)C[C@H]1C | inactive: 0.973
Cc1ccc(S(=O)(=O)Nc2cccc3c2O[C@H](CN(C)S(=O)(=O)c2c(C)noc2C)[C@H](C)CN([C@H](C)CO)C3=O)cc1 | inactive: 0.999
C[C@@H]1CCCCO[C@@H](CN(C)C(=O)Nc2ccc(C(F)(F)F)cc2)[C@H](C)CN([C@@H](C)CO)C(=O)c2cc(NS(C)(=O)=O)ccc2O1 | inactive: 0.937
C[C@H](CO)N1C[C@H](C)[C@H](CN(C)C(=O)Nc2ccc3c(c2)OCO3)OCc2ccccc2-c2c(n(C)c3ccccc23)C1=O | inactive: 0.982
C[C@H](CO)N1C[C@H](C)[C@@H](CN(C)Cc2ccc(Cl)c(Cl)c2)Oc2ccc(NS(=O)(=O)c3ccc(Cl)cc3)cc2C1=O | inactive: 1
Cc1noc(C)c1NC(=O)N(C)C[C@@H]1Oc2ccc(NC(=O)CCN3CCOCC3)cc2CC(=O)N([C@H](C)CO)C[C@H]1C | inactive: 0.999
CN1CCN(C(=O)C[C@H]2CC[C@H]3[C@@H](COc4ccc(NC(=O)c5cccs5)cc4C(=O)N3C)O2)CC1 | inactive: 1.01
Cc1cc(O)n(CCCO)c(=O)c1C#N | inactive: 1.02
C[C@H](CO)N1C[C@H](C)[C@@H](CN(C)C(=O)Nc2ccc(F)cc2)OCCCC[C@H](C)Oc2ccc(NS(=O)(=O)c3cccs3)cc2C1=O | inactive: 1
